Measured values reported in PubChem BioAssay AID485281 (National Center for Advancing Translational Sciences (NCATS), 2010).
Where “and” joins values, the source holds several entries; their conditions need not be identical. Equal entries are not always repeated. Hit rate of the full screen: of about 350,000 compounds, about 260 (0.074%) were called active. The shares of active, inactive and inconclusive entries below differ from those in the screen. Calls follow the shape of the dose curve; as a rule, active = well fitted inhibition curve with a large enough effect; inconclusive = small, poorly fitted or top-dose-only effect; inactive = no such curve, though single readings can be large or run the other way. A potency beside an inconclusive call is a rough fit, not a confirmed value.

Molecular target: Ferritin light chain (Equus caballus) (UniProt P02791)
Experiment: qHTS Assay for Identification of Novel General Anesthetics; also: nearly all actives have a fitted effect of over 20% in size
Settings: apoferritin/1-aminoanthracene competitive binding, fluorescence; activity change, negative = displacement: at 77.5 µM (top of the series)
In short: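 10 uM apoferritin + 50% sat. 1-AMA, PBS; cpd 10 min RT; Ex380/Em535 endpoint; normalized to free probe vs complex; 4-param Hill fit; propofol titration as pos. ctrl.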
% is scaled to controls: 0 for no effect and ±100 for the full control effect; potency is read from the fitted curve at half-maximal effect; tags tell the direction and shape of the fitted curve.

Sequence of UniProt P02791 (P02791 whole entry, looked up): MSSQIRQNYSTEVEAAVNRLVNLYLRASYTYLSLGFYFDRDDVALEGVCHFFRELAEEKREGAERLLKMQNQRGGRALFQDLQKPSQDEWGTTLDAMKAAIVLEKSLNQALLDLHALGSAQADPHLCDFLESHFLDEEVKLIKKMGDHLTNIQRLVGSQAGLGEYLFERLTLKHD

SMILES	Potency	activity change, negative = displacement
CC(CCOS(N)(=O)=O)c1ccccc1 (configuration not stated)	inconclusive: 25.1 µM [inhibitor, partial curve]	
O=C(Nc1cccc(C(F)(F)F)c1)C1CCN(S(=O)(=O)c2cccc3nsnc23)CC1	inconclusive: 20 µM [inhibitor, partial curve]	
COc1ccc(C(=O)Nc2ccccc2C(=O)Nc2cc(C)ccn2)cc1	inactive	
COc1ccc(/C=N/NC(=O)c2cccc(OC(F)(F)C(F)F)c2)c(OC)c1OC	inconclusive: 28.2 µM [inhibitor, partial curve]	
COc1ccccc1NC(=O)CN1CCN(c2ccccn2)CC1	inactive	
O=c1cc(CSc2nnnn2-c2ccccc2)nc2scc(-c3ccccc3)n12	inactive	
Cc1ccccc1-c1noc(-c2ccc(NC3CCCC3)c([N+](=O)[O-])c2)n1	inconclusive: 0.891 µM [inhibitor, full curve, poor fit]	
CCCOC(=O)c1ccc(NC(=O)c2nc3nc(C)cc(C)n3n2)cc1	inactive	
CCC1CCCCN1S(=O)(=O)c1ccc(NC(=O)c2snnc2C)cc1 (configuration not stated)	inconclusive: 50.1 µM [inhibitor, single point]	
COc1ccc(Cn2c(NCC(C)C)nc3c2c(=O)n(C)c(=O)n3C)cc1	inactive	
O=C(Cc1ccccc1)Nc1cccc([N+](=O)[O-])c1	inconclusive: 28.2 µM [inhibitor, single point]	
O=C(c1ccc(Br)cc1)N1CCC(C(=O)N2CCN(c3ccccc3)CC2)CC1	inactive	
C/C(=N\NC(=O)C1(C)NC(C)(C)Cc2ccccc21)c1ccccc1 (configuration not stated)	inconclusive: 35.5 µM [inhibitor, partial curve]	
Cc1ccc(S(=O)(=O)N[C@H]2COC(=O)C/C=C\[C@H](C)[C@@H](NS(=O)(=O)c3ccc(C)cc3)COC(=O)C/C=C\[C@@H]2C)cc1		inactive: -3.03% [at 15.3 µM]
CCC1CCCCN1C(=O)COc1ccc(F)cc1 (configuration not stated)	inconclusive: 25.1 µM [inhibitor, partial curve]	
O=C(/C=C/Nc1ccccc1Oc1ccccc1)c1ccco1	inconclusive: 17.8 µM [inhibitor, partial curve]	
O=C(Cn1nnc2ccccc2c1=O)Nc1cc(C(F)(F)F)ccc1N1CCOCC1	inconclusive: 50.1 µM [inhibitor, single point]	
O=C1c2ccccc2C(=O)N1CCCCN(C(=O)c1ccco1)c1ccc(Cl)cc1	inconclusive: 44.7 µM [inhibitor, partial curve, poor fit]	
O=C(N/N=C/C(Br)=C\c1ccccc1)c1n[nH]c2c1CCC2	inconclusive: 25.1 µM [inhibitor, partial curve]	
O=C(C[n+]1cccc(Br)c1)c1ccccc1	inactive	
Cc1ccc(C(=O)Nc2cccc(C(F)(F)F)c2)cc1Nc1cnccn1	inactive	
Cc1cc(-c2ccccc2)[nH]c(=O)c1S(=O)(=O)c1ccccc1	inconclusive: 39.8 µM [inhibitor, single point]	
O=S(=O)(Cc1ccccc1)Nc1cccc(F)c1	inconclusive: 39.8 µM [inhibitor, single point]	

SMILES	Potency	activity change, negative = displacement
O=C(CCNS(=O)(=O)c1ccccc1C(F)(F)F)NCCCSc1ccccc1	inconclusive: 20 µM [inhibitor, partial curve]	
Cc1nn(-c2cc(N3CCOCC3)ccc2[N+](=O)[O-])c(=O)c2ccccc12	inconclusive: 44.7 µM [inhibitor, single point]	
Cc1ccc(/C=C/C(=O)N2CC(C)CC(C)C2)o1 (configuration not stated)	inconclusive: 28.2 µM [inhibitor, single point]	
Cc1nn(-c2ccc(Cl)nn2)c(=O)c2ccccc12	inactive	
CCc1nnc(NC(=O)c2nc(SCc3ccc(F)cc3)ncc2Cl)s1	inconclusive: 17.8 µM [inhibitor, partial curve]	
Cc1ccc(-c2cnc(SCC(=O)N3CCCc4ccccc43)n2C)cc1	inconclusive: 17.8 µM [inhibitor, partial curve]	
COc1ccc(CNC(=O)C(c2ccc(C)o2)N(C(=O)c2csnn2)c2ccc(C(C)C)cc2)cc1 (configuration not stated)	inconclusive: 8.91 µM [inhibitor, partial curve]	
COCC(C)NC(=O)C1=CC(c2ccc3c(c2)OCO3)=NS(=O)(=O)N1C (configuration not stated)	inconclusive: 14.1 µM [inhibitor, partial curve]	
CC(=O)Nc1ccc(S(=O)(=O)N2CCN(c3ccc([N+](=O)[O-])cc3)CC2)cc1	inconclusive: 39.8 µM [inhibitor, single point]	
Cc1nc(NC(=O)c2ccccc2)sc1-c1csc(N)n1	inconclusive: 25.1 µM [inhibitor, partial curve]	
Cc1[nH]nc(SCC(=O)N2CCCCC2)c1[N+](=O)[O-]	inconclusive: 28.2 µM [inhibitor, single point]	
COc1ccc(/C=C/C(=O)N2CCN(C)CC2)cc1OC	inactive	
Clc1ccc(Cn2ncc3c(NCc4ccccc4)ncnc32)cc1	inconclusive: 15.8 µM [inhibitor, partial curve]	
CCN(c1ccccc1)S(=O)(=O)c1cc(C(=O)Nc2cccc(Cl)c2)ccc1F	inactive	
O=C(NC(=S)Nc1ccc(S(=O)(=O)N2CCCC2)cc1)c1cccs1	inconclusive: 20 µM [inhibitor, partial curve]	
Cc1cc(Cl)c(S(=O)(=O)NC2CCCCC2)cc1OCC(=O)Nc1nncs1	inconclusive: 11.2 µM [inhibitor, partial curve, poor fit]	
O=C(Nc1nc2ccccc2s1)c1ccccc1[N+](=O)[O-]	inactive	
Cc1cc(C)c(NS(=O)(=O)c2ccc3c(c2)NC(=O)CCS3)c(C)c1	inconclusive: 15.8 µM [inhibitor, partial curve]	
O=C(/C=C/c1cccs1)Nc1scc(-c2ccccc2)c1C(=O)O	inactive	
CCCC(=O)Nc1ccc(-c2ccc(NC(=O)CCC)cc2)cc1	inactive	
O=C(c1cccc(-n2cnnn2)c1)N1CC=C(c2ccccc2)CC1	inconclusive: 25.1 µM [inhibitor, partial curve]	
COc1ccc(NC(=O)CN(C)C(=O)/C=C/c2ccc(OCc3ccccc3)cc2)cc1	inactive	
Cc1ccc2c(CSc3nc4ccccc4c(=O)n3CCCO)cc(=O)oc2c1C	inconclusive: 14.1 µM [inhibitor, partial curve]	

SMILES	Potency	activity change, negative = displacement
CC(=O)c1ccc(NC(=O)CSc2nnc(NC(=O)NC3CCCCC3)s2)cc1	inconclusive: 20 µM [inhibitor, partial curve]	
O=C(COc1ccccc1Cl)Nc1ccc2c(c1)OCCO2	inactive	
CCOc1ccccc1/C=N/NC(=O)CNC(=O)COc1ccccc1	inconclusive: 28.2 µM [inhibitor, partial curve]	
O=C(CSc1nnc(COc2ccc(Cl)cc2)o1)OC1CCCCC1	inconclusive: 4.47 µM [inhibitor, full curve]	
O=C(C1=C(O)/C(=C/c2ccc(O)cc2)CCC1)C(F)(F)F	inconclusive: 31.6 µM [inhibitor, single point]	
CC(C)N(C(=O)Cn1cc(S(=O)(=O)CC(=O)Nc2ccccc2)c2ccccc21)C(C)C	inconclusive: 28.2 µM [inhibitor, partial curve]	
COC(=O)C1=C(C)NC(C)=C(C(=O)OCCN(C)Cc2ccccc2)C1c1cccc([N+](=O)[O-])c1 (configuration not stated)	inconclusive: 35.5 µM [inhibitor, partial curve] and inconclusive: 11.2 µM [inhibitor, partial curve]	
O=C(O)CC(c1ccc(Cl)cc1)N1Cc2ccccc2C1=O (configuration not stated)	inactive	
COC(=O)c1cc(C(=O)N2CCN(c3ccccc3OC)CC2)cc([N+](=O)[O-])c1	inconclusive: 35.5 µM [inhibitor, single point]	
O=C(Cn1nc(-c2ccccc2)c2ccccc2c1=O)Nc1ccc2c(c1)nc1n2CCOC1	inconclusive: 20 µM [inhibitor, partial curve]	
CCOc1ccc(-c2nonc2NC(=O)c2oc3cc(C)c(C)cc3c2C)cc1OCC	inactive	
CN(C)CCCNS(=O)(=O)c1ccc(NC2CCCCCC2)c([N+](=O)[O-])c1	inconclusive: 28.2 µM [inhibitor, partial curve]	
CCC(C)c1ccc(NC(=O)C2CCCN(c3ncccn3)C2)cc1 (configuration not stated)	inconclusive: 12.6 µM [inhibitor, partial curve]	
COc1ccc(S(=O)(=O)NC2CCCC2)cc1Cl	inconclusive: 22.4 µM [inhibitor, partial curve]	
CCCCCCCCCCCC(=O)c1c(O)cccc1O	inconclusive: 11.2 µM [inhibitor, partial curve]	
O=c1c2c3nc4ccccc4nc3n(/N=C/c3ccco3)c2ncn1CCC1=CCCCC1	inconclusive: 50.1 µM [inhibitor, single point]	
Nc1cc(N)nc(SCC(=O)N2CCCCC2)n1	inconclusive: 35.5 µM [inhibitor, single point]	
Cc1ccc(S(=O)(=O)c2nc(Nc3ccccc3)sc2Cl)cc1	inconclusive: 15.8 µM [inhibitor, partial curve]	
Cc1ccccc1C(=O)NC(=S)Nc1ccc(N2CCOCC2)cc1	inactive	
CC(C)c1cnc2c(c1SCC(=O)Nc1ccc(OC(F)(F)F)cc1)c(=O)n(C)c(=O)n2C	inconclusive: 8.91 µM [inhibitor, full curve]	
CCOC(=O)c1c(NC(=O)C2c3ccccc3Oc3ccccc32)sc(C(N)=O)c1C	inconclusive: 31.6 µM [inhibitor, partial curve, poor fit]	
